# The list shows a part of the results.
# B1: ECL (Erythrina cristagalli), Q6YD91 (protein)
# chain: VETISFSFSEFEPGNNDLTLQGAAIITQSGVLQLTKINQNGMPAWDSTGRTLYTKPVHIWDMTTGTVASFETRFSFSIEQPYTRPLPADGLVFFMGPTKSKPAQGYGYLGVFNNSKQDNSYQTLAVEFDTFSNPWDPPQVPHIGIDVNSIRSIKTQPFQLDNGQVANVVIKYDASSKILLAVLVYPSSGAIYTIAEIVDVKQVLPEWVDVGLSGATGAQRDAAETHDVYSWSFHASLPETND
# Columns and labels:
# Assay in all cases: glycan array binding signal (z-score within array); higher = stronger binding
# Conditions in all cases: glycan notation: IUPAC condensed, linker removed
# [1] = molecular target: Gal(b1-4)GlcNAc(b1-3)Gal(b1-4)GlcNAc(b1-3)Gal(b1-4)GlcNAc(b1-3)Gal(b1-4)GlcNAc(b1-3)Gal(b1-4)GlcNAc(b1-2)[Gal(b1-4)GlcNAc(b1-3)Gal(b1-4)GlcNAc(b1-3)Gal(b1-4)GlcNAc(b1-3)Gal(b1-4)GlcNAc(b1-3)Gal(b1-4)GlcNAc(b1-6)]Man(a1-6)[Gal(b1-4)GlcNAc(b1-3)Gal(b1-4)GlcNAc(b1-3)Gal(b1-4)GlcNAc(b1-3)Gal(b1-4)GlcNAc(b1-3)Gal(b1-4)GlcNAc(b1-2)Man(a1-3)]Man(b1-4)GlcNAc(b1-4)[Fuc(a1-6)]GlcNAc
# Outline: (§1)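 Glycan array data were curated from 3228 arrays in the Consortium for Functional Glycomics database and kept only where the protein sequence was available. Glycan names were converted to IUPAC-condensed notation, and columns mapping to the same glycan were averaged. The binding signal is a within-array Z-score, averaged across arrays of the same protein sequence at different concentrations or buffers and across linkers. Negative Z-scores can be read as non-binding.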
# [2] = molecular target: Gal(b1-4)GlcNAc(b1-3)Gal(b1-4)GlcNAc(b1-3)Gal(b1-4)GlcNAc(b1-3)Gal(b1-4)GlcNAc(b1-3)Gal(b1-4)GlcNAc(b1-3)Gal(b1-4)GlcNAc(b1-2)Man(a1-3)[Gal(b1-4)GlcNAc(b1-3)Gal(b1-4)GlcNAc(b1-3)Gal(b1-4)GlcNAc(b1-3)Gal(b1-4)GlcNAc(b1-3)Gal(b1-4)GlcNAc(b1-3)Gal(b1-4)GlcNAc(b1-2)Man(a1-6)]Man(b1-4)GlcNAc(b1-4)GlcNAc
# Outline: as §1
# [3] = molecular target: Gal(b1-4)GlcNAc(b1-3)Gal(b1-4)GlcNAc(b1-3)GalNAc
# Outline: as §1
# [4] = molecular target: Gal(b1-4)GlcNAc(b1-3)Gal(b1-4)GlcNAc(b1-3)[Gal(b1-4)GlcNAc(b1-3)Gal(b1-4)GlcNAc(b1-6)]GalNAc
# Outline: as §1
# [5] = molecular target: Gal(b1-4)GlcNAc(b1-3)Gal(b1-4)GlcNAc(b1-6)[Gal(b1-3)]GalNAc
# Outline: as §1
# [6] = molecular target: Gal(b1-4)GlcNAc(b1-3)Gal(b1-4)[Fuc(a1-3)]GlcNAc(b1-3)Gal(b1-4)[Fuc(a1-3)]GlcNAc
# Outline: as §1
# [7] = molecular target: Gal(b1-4)GlcNAc(b1-3)GalNAc
# Outline: as §1
# [8] = molecular target: Gal(b1-4)GlcNAc(b1-3)[Fuc(a1-3)GlcNAc(b1-6)]Gal(b1-4)Glc
# Outline: as §1
# [9] = molecular target: Gal(b1-4)GlcNAc(b1-3)[Gal(b1-4)GlcNAc(b1-6)]Gal(b1-4)GlcNAc
# Outline: as §1
# [10] = molecular target: Gal(b1-4)GlcNAc(b1-3)[GlcNAc(b1-6)]Gal(b1-4)GlcNAc
# Outline: as §1
# [11] = molecular target: Gal(b1-4)GlcNAc(b1-6)Gal(b1-4)GlcNAc
# Outline: as §1
# [12] = molecular target: Gal(b1-4)GlcNAc(b1-6)GalNAc
# Outline: as §1
# [13] = molecular target: Gal(b1-4)GlcNAc(b1-6)[Gal(b1-3)]GalNAc
# Outline: as §1
# [14] = molecular target: Gal(b1-4)GlcNAc(b1-6)[Gal(b1-4)GlcNAc(b1-3)]GalNAc
# Outline: as §1
# Gal(b1-4)GlcNAc6P = molecular target: Gal(b1-4)GlcNAc6P
# Outline: as §1
# Gal(b1-6)Gal = molecular target: Gal(b1-6)Gal
# Outline: as §1
# Gal3S(b1-3)GalNAc = molecular target: Gal3S(b1-3)GalNAc
# Outline: as §1
# Gal3S(b1-3)GlcNAc = molecular target: Gal3S(b1-3)GlcNAc
# Outline: as §1
# [15] = molecular target: Gal3S(b1-3)[Fuc(a1-4)]GlcNAc
# Outline: as §1
binder,measurement,setting,value
B1,glycan array binding signal (z-score),[1],5.32
same,glycan array binding signal (z-score),[2],2.02
same,glycan array binding signal (z-score),[3],2.25
same,glycan array binding signal (z-score),[4],1.45
same,glycan array binding signal (z-score),[5],1.11
same,glycan array binding signal (z-score),[6],0.231
same,glycan array binding signal (z-score),[7],-0.029
same,glycan array binding signal (z-score),[8],0.144
same,glycan array binding signal (z-score),[9],3.6
same,glycan array binding signal (z-score),[10],1.35
same,glycan array binding signal (z-score),[11],0.209
same,glycan array binding signal (z-score),[12],0.199
same,glycan array binding signal (z-score),[13],-0.019
same,glycan array binding signal (z-score),[14],0.77
same,glycan array binding signal (z-score),Gal(b1-4)GlcNAc6P,-0.106
same,glycan array binding signal (z-score),Gal(b1-6)Gal,-0.044
same,glycan array binding signal (z-score),Gal3S(b1-3)GalNAc,-0.312
same,glycan array binding signal (z-score),Gal3S(b1-3)GlcNAc,-0.33
same,glycan array binding signal (z-score),[15],-0.191
